{"source": "the supplement of paper PMC8728848", "binders": {"B1": {"name": "PNA (Arachis hypogaea), P02872 (protein)", "chain": "MKPFCVFLTFFLLLAASSKKVDSAETVSFNFNSFSEGNPAINFQGDVTVLSNGNIQLTNLNKVNSVGRVLYAMPVRIWSSATGNVASFLTSFSFEMKDIKDYDPADGIIFFIAPEDTQIPAGSIGGGTLGVSDTKGAGHFVGVEFDTYSNSEYNDPPTDHVGIDVNSVDSVKTVPWNSVSGAVVKVTVIYDSSTKTLSVAVTNDNGDITTIAQVVDLKAKLPERVKFGFSASGSLGGRQIHLIRSWSFTSTLITTTRRSIDNNEKKIMNMASA"}}, "assay_in_all_cases": "glycan array binding signal (z-score within array); higher = stronger binding", "settings_in_all_cases": "glycan notation: IUPAC condensed, linker removed", "key": {"[1]": {"biological_target": "Glc(a1-6)Glc(a1-6)Glc(a1-6)Glc(a1-6)Glc(a1-6)Glc(a1-6)Glc(a1-6)Glc(a1-6)Glc(a1-6)Glc(a1-6)Glc", "outline": "(§1)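 The Consortium for Functional Glycomics database supplied 3228 glycan arrays, of which those lacking an available protein sequence were dropped. The binding signal, a within-array Z-score, was averaged across arrays of the same protein sequence and across linkers. Negative scores can be read as non-binding.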"}, "[2]": {"biological_target": "Glc(a1-6)Glc(a1-6)Glc(a1-6)Glc(a1-6)Glc(a1-6)Glc(a1-6)Glc(a1-6)Glc(a1-6)Glc(a1-6)Glc(a1-6)Glc(a1-6)Glc", "outline": "as §1"}, "[3]": {"biological_target": "Glc(a1-6)Glc(a1-6)Glc(a1-6)Glc(a1-6)Glc(a1-6)Glc(a1-6)Glc(a1-6)Glc(a1-6)Glc(a1-6)Glc(a1-6)Glc(a1-6)Glc(a1-6)Glc", "outline": "as §1"}, "Glc(b1-2)Glc": {"biological_target": "Glc(b1-2)Glc", "outline": "as §1"}, "Glc(b1-3)Glc": {"biological_target": "Glc(b1-3)Glc", "outline": "as §1"}, "Glc(b1-3)Glc(b1-3)Glc": {"biological_target": "Glc(b1-3)Glc(b1-3)Glc", "outline": "as §1"}, "[4]": {"biological_target": "Glc(b1-3)Glc(b1-3)Glc(b1-3)Glc", "outline": "as §1"}, "[5]": {"biological_target": "Glc(b1-3)Glc(b1-3)Glc(b1-3)Glc(b1-3)Glc", "outline": "as §1"}, "[6]": {"biological_target": "Glc(b1-3)Glc(b1-3)Glc(b1-3)Glc(b1-3)Glc(b1-3)Glc", "outline": "as §1"}, "[7]": {"biological_target": "Glc(b1-3)Glc(b1-3)Glc(b1-3)Glc(b1-3)Glc(b1-3)Glc(b1-3)Glc", "outline": "as §1"}, "[8]": {"biological_target": "Glc(b1-3)Glc(b1-3)Glc(b1-3)Glc(b1-3)Glc(b1-3)Glc(b1-3)Glc(b1-3)Glc", "outline": "as §1"}, "[9]": {"biological_target": "Glc(b1-3)Glc(b1-3)Glc(b1-3)Glc(b1-3)Glc(b1-3)Glc(b1-3)Glc(b1-3)Glc(b1-3)Glc", "outline": "as §1"}, "[10]": {"biological_target": "Glc(b1-3)Glc(b1-3)Glc(b1-3)Glc(b1-3)Glc(b1-3)Glc(b1-3)Glc(b1-3)Glc(b1-3)Glc(b1-3)Glc", "outline": "as §1"}, "[11]": {"biological_target": "Glc(b1-3)Glc(b1-3)Glc(b1-3)Glc(b1-3)Glc(b1-3)Glc(b1-3)Glc(b1-3)Glc(b1-3)Glc(b1-3)Glc(b1-3)Glc", "outline": "as §1"}, "[12]": {"biological_target": "Glc(b1-3)Glc(b1-3)Glc(b1-3)Glc(b1-3)Glc(b1-3)Glc(b1-3)Glc(b1-3)Glc(b1-3)Glc(b1-3)Glc(b1-3)Glc(b1-3)Glc", "outline": "as §1"}, "[13]": {"biological_target": "Glc(b1-3)Glc(b1-3)Glc(b1-3)Glc(b1-3)Glc(b1-3)Glc(b1-3)Glc(b1-3)Glc(b1-3)Glc(b1-3)Glc(b1-3)Glc(b1-3)Glc(b1-3)Glc", "outline": "as §1"}, "Glc(b1-4)Glc": {"biological_target": "Glc(b1-4)Glc", "outline": "as §1"}, "Glc(b1-4)Glc(b1-4)Glc": {"biological_target": "Glc(b1-4)Glc(b1-4)Glc", "outline": "as §1"}, "[14]": {"biological_target": "Glc(b1-4)Glc(b1-4)Glc(b1-4)Glc", "outline": "as §1"}, "[15]": {"biological_target": "Glc(b1-4)Glc(b1-4)Glc(b1-4)Glc(b1-4)Glc", "outline": "as §1"}, "[16]": {"biological_target": "Glc(b1-4)Glc(b1-4)Glc(b1-4)Glc(b1-4)Glc(b1-4)Glc", "outline": "as §1"}, "[17]": {"biological_target": "Glc(b1-4)Glc(b1-4)Glc(b1-4)Glc(b1-4)Glc(b1-4)Glc(b1-4)Glc(b1-4)Glc", "outline": "as §1"}, "[18]": {"biological_target": "Glc(b1-4)Glc(b1-4)Glc(b1-4)Glc(b1-4)Glc(b1-4)Glc(b1-4)Glc(b1-4)Glc(b1-4)Glc", "outline": "as §1"}, "[19]": {"biological_target": "Glc(b1-4)Glc(b1-4)Glc(b1-4)Glc(b1-4)Glc(b1-4)Glc(b1-4)Glc(b1-4)Glc(b1-4)Glc(b1-4)Glc", "outline": "as §1"}, "[20]": {"biological_target": "Glc(b1-4)Glc(b1-4)Glc(b1-4)Glc(b1-4)Glc(b1-4)Glc(b1-4)Glc(b1-4)Glc(b1-4)Glc(b1-4)Glc(b1-4)Glc", "outline": "as §1"}, "[21]": {"biological_target": "Glc(b1-4)Glc(b1-4)Glc(b1-4)Glc(b1-4)Glc(b1-4)Glc(b1-4)Glc(b1-4)Glc(b1-4)Glc(b1-4)Glc(b1-4)Glc(b1-4)Glc", "outline": "as §1"}, "[22]": {"biological_target": "Glc(b1-4)Glc(b1-4)Glc(b1-4)Glc(b1-4)Glc(b1-4)Glc(b1-4)Glc(b1-4)Glc(b1-4)Glc(b1-4)Glc(b1-4)Glc(b1-4)Glc(b1-4)Glc", "outline": "as §1"}, "Glc(b1-6)Glc": {"biological_target": "Glc(b1-6)Glc", "outline": "as §1"}, "Glc(b1-6)Glc(b1-6)Glc": {"biological_target": "Glc(b1-6)Glc(b1-6)Glc", "outline": "as §1"}, "[23]": {"biological_target": "Glc(b1-6)Glc(b1-6)Glc(b1-6)Glc", "outline": "as §1"}, "[24]": {"biological_target": "Glc(b1-6)Glc(b1-6)Glc(b1-6)Glc(b1-6)Glc", "outline": "as §1"}, "[25]": {"biological_target": "Glc(b1-6)Glc(b1-6)Glc(b1-6)Glc(b1-6)Glc(b1-6)Glc", "outline": "as §1"}, "[26]": {"biological_target": "Glc(b1-6)Glc(b1-6)Glc(b1-6)Glc(b1-6)Glc(b1-6)Glc(b1-6)Glc", "outline": "as §1"}, "[27]": {"biological_target": "Glc(b1-6)Glc(b1-6)Glc(b1-6)Glc(b1-6)Glc(b1-6)Glc(b1-6)Glc(b1-6)Glc", "outline": "as §1"}, "[28]": {"biological_target": "Glc(b1-6)Glc(b1-6)Glc(b1-6)Glc(b1-6)Glc(b1-6)Glc(b1-6)Glc(b1-6)Glc(b1-6)Glc", "outline": "as §1"}, "GlcA(b1-3)Gal": {"biological_target": "GlcA(b1-3)Gal", "outline": "as §1"}, "[29]": {"biological_target": "GlcA(b1-3)Gal(b1-3)GlcNAc", "outline": "as §1"}}, "note": "The other results are listed elsewhere or left out."}
{"binder": "B1", "values": [{"measurement": "glycan array binding signal (z-score)", "setting": "[1]", "result": -0.195}, {"measurement": "glycan array binding signal (z-score)", "setting": "[2]", "result": -0.195}, {"measurement": "glycan array binding signal (z-score)", "setting": "[3]", "result": -0.195}, {"measurement": "glycan array binding signal (z-score)", "setting": "Glc(b1-2)Glc", "result": -0.195}, {"measurement": "glycan array binding signal (z-score)", "setting": "Glc(b1-3)Glc", "result": -0.195}, {"measurement": "glycan array binding signal (z-score)", "setting": "Glc(b1-3)Glc(b1-3)Glc", "result": -0.195}, {"measurement": "glycan array binding signal (z-score)", "setting": "[4]", "result": -0.195}, {"measurement": "glycan array binding signal (z-score)", "setting": "[5]", "result": -0.195}, {"measurement": "glycan array binding signal (z-score)", "setting": "[6]", "result": -0.195}, {"measurement": "glycan array binding signal (z-score)", "setting": "[7]", "result": -0.195}, {"measurement": "glycan array binding signal (z-score)", "setting": "[8]", "result": -0.195}, {"measurement": "glycan array binding signal (z-score)", "setting": "[9]", "result": -0.195}, {"measurement": "glycan array binding signal (z-score)", "setting": "[10]", "result": -0.195}, {"measurement": "glycan array binding signal (z-score)", "setting": "[11]", "result": -0.195}, {"measurement": "glycan array binding signal (z-score)", "setting": "[12]", "result": -0.195}, {"measurement": "glycan array binding signal (z-score)", "setting": "[13]", "result": -0.195}, {"measurement": "glycan array binding signal (z-score)", "setting": "Glc(b1-4)Glc", "result": -0.166}, {"measurement": "glycan array binding signal (z-score)", "setting": "Glc(b1-4)Glc(b1-4)Glc", "result": 0.142}, {"measurement": "glycan array binding signal (z-score)", "setting": "[14]", "result": 0.389}, {"measurement": "glycan array binding signal (z-score)", "setting": "[15]", "result": 0.275}, {"measurement": "glycan array binding signal (z-score)", "setting": "[16]", "result": -0.087}, {"measurement": "glycan array binding signal (z-score)", "setting": "[17]", "result": 0.304}, {"measurement": "glycan array binding signal (z-score)", "setting": "[18]", "result": 0.924}, {"measurement": "glycan array binding signal (z-score)", "setting": "[19]", "result": 1.4}, {"measurement": "glycan array binding signal (z-score)", "setting": "[20]", "result": 2.88}, {"measurement": "glycan array binding signal (z-score)", "setting": "[21]", "result": 1.98}, {"measurement": "glycan array binding signal (z-score)", "setting": "[22]", "result": 2.23}, {"measurement": "glycan array binding signal (z-score)", "setting": "Glc(b1-6)Glc", "result": -0.173}, {"measurement": "glycan array binding signal (z-score)", "setting": "Glc(b1-6)Glc(b1-6)Glc", "result": -0.195}, {"measurement": "glycan array binding signal (z-score)", "setting": "[23]", "result": -0.195}, {"measurement": "glycan array binding signal (z-score)", "setting": "[24]", "result": -0.195}, {"measurement": "glycan array binding signal (z-score)", "setting": "[25]", "result": -0.195}, {"measurement": "glycan array binding signal (z-score)", "setting": "[26]", "result": -0.195}, {"measurement": "glycan array binding signal (z-score)", "setting": "[27]", "result": -0.195}, {"measurement": "glycan array binding signal (z-score)", "setting": "[28]", "result": -0.195}, {"measurement": "glycan array binding signal (z-score)", "setting": "GlcA(b1-3)Gal", "result": -0.167}, {"measurement": "glycan array binding signal (z-score)", "setting": "[29]", "result": -0.195}]}
